# Assay results reported in the supplement of paper PMC8728848.
# The other results are listed elsewhere or left out.
# Experiments:
# Experiment in all cases: glycan array binding signal (z-score within array); higher = stronger binding
# Details in all cases: glycan notation: IUPAC condensed, linker removed
# [1] = target: Neu5Ac(a2-3)Gal(b1-3)GalNAc
# In short: (§1)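 Arrays were curated from the Consortium for Functional Glycomics database, 3228 in total, and kept only where the protein sequence was available. Binding is expressed as a within-array Z-score. This score was averaged across arrays of the same protein sequence at different concentrations or buffers and across linkers, and negative values can be read as non-binding.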
# [2] = target: Neu5Ac(a2-3)Gal(b1-3)GalNAc(b1-3)Gal(a1-4)Gal(b1-4)Glc
# In short: as §1
# [3] = target: Neu5Ac(a2-3)Gal(b1-3)GalNAc(b1-4)[Neu5Ac(a2-3)]Gal(b1-4)Glc
# In short: as §1
# [4] = target: Neu5Ac(a2-3)Gal(b1-3)GalNAc(b1-4)[Neu5Ac(a2-8)Neu5Ac(a2-3)]Gal(b1-4)Glc
# In short: as §1
# [5] = target: Neu5Ac(a2-3)Gal(b1-3)GalNAc6S
# In short: as §1
# [6] = target: Neu5Ac(a2-3)Gal(b1-3)GlcNAc
# In short: as §1
# [7] = target: Neu5Ac(a2-3)Gal(b1-3)GlcNAc(b1-2)Man
# In short: as §1
# [8] = target: Neu5Ac(a2-3)Gal(b1-3)GlcNAc(b1-2)Man(a1-3)[GlcNAc(b1-4)][Neu5Ac(a2-3)Gal(b1-3)GlcNAc(b1-2)Man(a1-6)]Man(b1-4)GlcNAc(b1-4)GlcNAc
# In short: as §1
# [9] = target: Neu5Ac(a2-3)Gal(b1-3)GlcNAc(b1-2)Man(a1-3)[Neu5Ac(a2-3)Gal(b1-3)GlcNAc(b1-2)Man(a1-6)]Man(b1-4)GlcNAc(b1-4)GlcNAc
# In short: as §1
# [10] = target: Neu5Ac(a2-3)Gal(b1-3)GlcNAc(b1-3)Gal(b1-3)GlcNAc
# In short: as §1
# [11] = target: Neu5Ac(a2-3)Gal(b1-3)GlcNAc(b1-3)Gal(b1-4)GlcNAc
# In short: as §1
# [12] = target: Neu5Ac(a2-3)Gal(b1-3)GlcNAc(b1-3)GalNAc
# In short: as §1
# [13] = target: Neu5Ac(a2-3)Gal(b1-3)GlcNAc(b1-4)Gal(b1-4)Glc
# In short: as §1
# [14] = target: Neu5Ac(a2-3)Gal(b1-3)GlcNAc(b1-6)GalNAc
# In short: as §1
# [15] = target: Neu5Ac(a2-3)Gal(b1-3)GlcNAc6S
# In short: as §1
# [16] = target: Neu5Ac(a2-3)Gal(b1-3)[Fuc(a1-4)]GlcNAc
# In short: as §1
# [17] = target: Neu5Ac(a2-3)Gal(b1-3)[Fuc(a1-4)]GlcNAc(b1-3)Gal(b1-3)[Fuc(a1-4)]GlcNAc
# In short: as §1
# [18] = target: Neu5Ac(a2-3)Gal(b1-3)[Fuc(a1-4)]GlcNAc(b1-3)Gal(b1-4)[Fuc(a1-3)]GlcNAc
# In short: as §1
# [19] = target: Neu5Ac(a2-3)Gal(b1-3)[GlcNAc(b1-6)]GalNAc
# In short: as §1
# [20] = target: Neu5Ac(a2-3)Gal(b1-3)[Neu5Ac(a2-6)]GalNAc
# In short: as §1
# [21] = target: Neu5Ac(a2-3)Gal(b1-3)[Neu5Ac(a2-6)]GlcNAc(b1-3)[Fuc(a1-3)[Gal(b1-4)]GlcNAc(b1-6)]Gal(b1-4)Glc
# In short: as §1
# [22] = target: Neu5Ac(a2-3)Gal(b1-3)]Neu5Ac(a2-3)Gal(b1-4)]GlcNAc
# In short: as §1
# [23] = target: Neu5Ac(a2-3)Gal(b1-4)Glc
# In short: as §1
# [24] = target: Neu5Ac(a2-3)Gal(b1-4)GlcNAc
# In short: as §1
# [25] = target: Neu5Ac(a2-3)Gal(b1-4)GlcNAc(b1-2)Man
# In short: as §1
# [26] = target: Neu5Ac(a2-3)Gal(b1-4)GlcNAc(b1-2)Man(a1-3)[GlcNAc(b1-4)][Neu5Ac(a2-3)Gal(b1-4)GlcNAc(b1-2)Man(a1-6)]Man(b1-4)GlcNAc(b1-4)GlcNAc
# In short: as §1
# [27] = target: Neu5Ac(a2-3)Gal(b1-4)GlcNAc(b1-2)Man(a1-3)[Neu5Ac(a2-3)Gal(b1-4)GlcNAc(b1-2)Man(a1-6)]Man(b1-4)GlcNAc(b1-4)GlcNAc
# In short: as §1
# [28] = target: Neu5Ac(a2-3)Gal(b1-4)GlcNAc(b1-2)Man(a1-3)[Neu5Ac(a2-3)Gal(b1-4)GlcNAc(b1-2)Man(a1-6)]Man(b1-4)GlcNAc(b1-4)[Fuc(a1-6)]GlcNAc
# In short: as §1
# [29] = target: Neu5Ac(a2-3)Gal(b1-4)GlcNAc(b1-2)Man(a1-3)[Neu5Ac(a2-6)Gal(b1-4)GlcNAc(b1-2)Man(a1-6)]Man(b1-4)GlcNAc(b1-4)GlcNAc
# In short: as §1
# [30] = target: Neu5Ac(a2-3)Gal(b1-4)GlcNAc(b1-2)[Neu5Ac(a2-3)Gal(b1-4)GlcNAc(b1-4)]Man(a1-3)[GlcNAc(b1-4)][Neu5Ac(a2-3)Gal(b1-4)GlcNAc(b1-2)[Neu5Ac(a2-3)Gal(b1-4)GlcNAc(b1-6)]Man(a1-6)]Man(b1-4)GlcNAc(b1-4)GlcNAc
# In short: as §1
# [31] = target: Neu5Ac(a2-3)Gal(b1-4)GlcNAc(b1-2)[Neu5Ac(a2-3)Gal(b1-4)GlcNAc(b1-4)]Man(a1-3)[GlcNAc(b1-4)][Neu5Ac(a2-3)Gal(b1-4)GlcNAc(b1-4)Man(a1-6)]Man(b1-4)GlcNAc(b1-4)GlcNAc
# In short: as §1
# [32] = target: Neu5Ac(a2-3)Gal(b1-4)GlcNAc(b1-2)[Neu5Ac(a2-3)Gal(b1-4)GlcNAc(b1-6)]Man(a1-6)[Neu5Ac(a2-3)Gal(b1-4)GlcNAc(b1-2)Man(a1-3)]Man(b1-4)GlcNAc(b1-4)GlcNAc
# In short: as §1
# [33] = target: Neu5Ac(a2-3)Gal(b1-4)GlcNAc(b1-2)[Neu5Ac(a2-3)Gal(b1-4)GlcNAc(b1-6)]Man(a1-6)[Neu5Ac(a2-3)Gal(b1-4)GlcNAc(b1-2)Man(a1-3)][GlcNAc(b1-4)]Man(b1-4)GlcNAc(b1-4)GlcNAc
# In short: as §1
# [34] = target: Neu5Ac(a2-3)Gal(b1-4)GlcNAc(b1-3)Gal
# In short: as §1
# [35] = target: Neu5Ac(a2-3)Gal(b1-4)GlcNAc(b1-3)Gal(b1-3)GlcNAc
# In short: as §1
# [36] = target: Neu5Ac(a2-3)Gal(b1-4)GlcNAc(b1-3)Gal(b1-4)GlcNAc
# In short: as §1
# [37] = target: Neu5Ac(a2-3)Gal(b1-4)GlcNAc(b1-3)Gal(b1-4)GlcNAc(b1-2)Man(a1-3)[Neu5Ac(a2-3)Gal(b1-4)GlcNAc(b1-3)Gal(b1-4)GlcNAc(b1-2)Man(a1-6)]Man(b1-4)GlcNAc(b1-4)GlcNAc
# In short: as §1
binder,measurement,setting,value
Si Bti9 1b-V5-his (Solanum lycopersicum) (protein) MQCNRGCDLALASFYVWRGSNLTLISEMFSTSIADIVSYNNRDNIPNQDSVIAGTRINIPFRCDCLNDGEVLGHAFPYRVKSGDTYDLVARNYSDLTTAQWMMKFNSYPENNIPNTVNLSVVVNCSCGNSDVSKDFGLFVTYPVRAEDNLTSVASAANVSEDIIRRYNPAAVSILDIGQGIIYIPGRDRNGNFPPLPTSTDGLSGGAKKGGRADPAFLYKVVINSKLEGKPIPNPLLGLDSTRTGHHHHHH,glycan array binding signal (z-score),[1],-0.303
same,glycan array binding signal (z-score),[2],-0.188
same,glycan array binding signal (z-score),[3],-0.251
same,glycan array binding signal (z-score),[4],0.005
same,glycan array binding signal (z-score),[5],-0.251
same,glycan array binding signal (z-score),[6],-0.333
same,glycan array binding signal (z-score),[7],-0.149
same,glycan array binding signal (z-score),[8],-0.182
same,glycan array binding signal (z-score),[9],0.033
same,glycan array binding signal (z-score),[10],-0.323
same,glycan array binding signal (z-score),[11],-0.317
same,glycan array binding signal (z-score),[12],-0.263
same,glycan array binding signal (z-score),[13],-0.223
same,glycan array binding signal (z-score),[14],0.055
same,glycan array binding signal (z-score),[15],0.024
same,glycan array binding signal (z-score),[16],-0.303
same,glycan array binding signal (z-score),[17],-0.079
same,glycan array binding signal (z-score),[18],-0.294
same,glycan array binding signal (z-score),[19],-0.228
same,glycan array binding signal (z-score),[20],-0.238
same,glycan array binding signal (z-score),[21],-0.344
same,glycan array binding signal (z-score),[22],-0.311
same,glycan array binding signal (z-score),[23],-0.218
same,glycan array binding signal (z-score),[24],-0.338
same,glycan array binding signal (z-score),[25],0.768
same,glycan array binding signal (z-score),[26],-0.35
same,glycan array binding signal (z-score),[27],-0.423
same,glycan array binding signal (z-score),[28],-0.291
same,glycan array binding signal (z-score),[29],-0.367
same,glycan array binding signal (z-score),[30],-0.157
same,glycan array binding signal (z-score),[31],-0.113
same,glycan array binding signal (z-score),[32],-0.106
same,glycan array binding signal (z-score),[33],-0.312
same,glycan array binding signal (z-score),[34],0.048
same,glycan array binding signal (z-score),[35],-0.372
same,glycan array binding signal (z-score),[36],-0.389
same,glycan array binding signal (z-score),[37],-0.283
